Assay results taken from PubChem BioAssay AID1346428 (National Center for Advancing Translational Sciences (NCATS), 2018).
Values joined by “and” are separate entries in the source; they are usually repeats but may differ in a detail not shown here. Equal entries are not always repeated. In all, about 48,000 compounds went through this assay and about 1,200 (2.5%) were called active. Another 2% or so got no clear call; they are omitted.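 How the source made its calls: active means activation of at least 60% and not above a set upper limit (about 1 call in 100 departs from these limits); inconclusive means activation of 40% to 60%, or above that upper limit; inactive means activation under 40%.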 The list shows a part of the results.

The compounds below were run against Probable G-protein coupled receptor 32 (Homo sapiens) (UniProt O75388) (assay: qHTS for Agonists of Human Resolvin D1 Receptor DRV1). Details: CHO-K1 GPR32 beta-arrestin PathHunter luminescence, 90 min; at 76.9 µM; active compounds read high; zero percent set by DMSO-only wells.
UniProt O75388, sequence (O75388 whole entry, looked up): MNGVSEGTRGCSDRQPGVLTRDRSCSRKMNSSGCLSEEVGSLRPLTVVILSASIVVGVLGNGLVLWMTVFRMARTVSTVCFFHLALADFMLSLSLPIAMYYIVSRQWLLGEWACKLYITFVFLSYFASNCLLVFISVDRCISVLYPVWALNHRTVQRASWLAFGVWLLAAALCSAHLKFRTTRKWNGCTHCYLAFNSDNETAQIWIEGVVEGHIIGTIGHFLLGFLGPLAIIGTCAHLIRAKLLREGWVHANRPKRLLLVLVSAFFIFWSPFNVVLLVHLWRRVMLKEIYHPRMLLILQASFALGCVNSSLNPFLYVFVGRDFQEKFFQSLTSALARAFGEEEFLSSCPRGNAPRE
In short: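 Step 1: seed CHO-K1 GPR32 beta-arrestin cells, 2,500/well, overnight at 37 °C. Step 2: add compounds, 90 min at 37 °C. Step 3: detection reagent, 1 h ambient, then luminescence.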
Further: 0% is about no effect.

activation, active:
COc1ccc(CCNc2ncnc3onc(C)c23)c(OC)c1 75.3%

activation, inactive:
COc1ccc(-n2cc(-c3ccccc3)c3c(Nc4ccc(OC)c(OC)c4)ncnc32)cc1 -9.83%
CCn1c(C)c(C)c2cc(C(=O)NCc3ccc(F)cc3)ccc21 -14.7%
COc1cc(OC)c(NC(=O)Nc2cccc(OCc3cc(=O)n4ccccc4n3)c2)cc1Cl -9.2%
COc1ccccc1N1CCN(S(=O)(=O)c2c(C)sc3ncn(CC(=O)N(C)c4ccc(Cl)cc4)c(=O)c23)CC1 -10.7%
CCNC(=O)c1c(NC(=O)Cc2coc3cc(C)cc(C)c23)sc2c1CCCC2 8.32%
CC1CCN(CCCC(=O)c2ccc(F)cc2)CC1 -5.47%
Oc1c(C(c2ccccc2F)N2CCN(Cc3ccccc3)CC2)sc2nc(-c3ccco3)nn12 (stereo not drawn) 21.9%
Cc1c(C(=O)N2CCC(c3nc4ccccc4s3)CC2)oc2ccc(Cl)cc12 -20.4%
Cc1cc(C)c2c(=O)nc(SCc3ccccc3C)n(C3CC3)c2n1 -16.1%
Nc1ccc(S(N)(=O)=O)cc1 -3.54%
Cc1ccc(NC(=O)c2cc(-c3ccc(Br)s3)nc3ccccc23)cc1F -6.76%
Cc1ccc(-n2ncc3c(Nc4cccc(C)c4C)ncnc32)cc1 -15.2%
CCOc1ccccc1N(C)C(=O)C1CCCN(c2ncnc3c2nc2n3CCCCC2)C1 (stereo not drawn) 15.5%
Cc1ccc2c(CC(=O)Nc3ccc(S(=O)(=O)N4CCCCC4)cc3)coc2c1 -18.2%
COc1ccc(C(=O)OC2=C(C(=O)c3ccccc3)N(C)S(=O)(=O)c3ccccc32)cc1OC -9.94%
COCCn1c(=NC(=O)c2ccc3c(c2)OCCO3)sc2cc(C(=O)OC)ccc21 1.49%
CCN1CCC[C@H]1CNC(=O)c1cc(S(N)(=O)=O)ccc1OC 2.07% and -0.692%
CCOc1ccc(CNC(=O)Cn2cc3c(n2)-c2c(oc(C(=O)N4CCOCC4)c2C)CC3)cc1 -10%
Cc1ccc(CN2C(=O)C3(c4ccccc42)N(c2cccc(F)c2)C(=O)CS3(=O)=O)cc1 (stereo not drawn) -26.7%
COc1ccccc1N1CCN(CCCNC(=O)c2cnn(-c3cccc(Cl)c3)c2C2CCN(C(=O)OC(C)(C)C)CC2)CC1 -16.1%
COc1cc(NC(=O)NC(C)c2c(-n3cccc3)sc3c2CCCC3)cc(OC)c1OC (stereo not drawn) -14.5%
CCOC(=O)c1c(C)c(-c2ccccc2)n(CC(=O)Nc2cc(C)ccc2OC)c1C -0.284%
Cc1ccccc1CN1CCC(CNc2ncnc3onc(-c4ccc(F)cc4)c23)CC1 -2.76%
CCCCN(CC)CCNC(=O)c1cn(C)c(=O)c2c1c1ccccc1n2C -2.3%
Cc1ccc(OCc2ccc(-c3nc(C#N)c(NCc4cccnc4)o3)o2)cc1 12.6%
CCc1cccc(-n2nnc(-c3nsc(NC(=O)c4cccs4)n3)c2C)c1 -11.6%
CC(=O)Nc1ccc2nc(-c3cc(C)ccc3C)[nH]c2c1 34.4%
COc1ccc(C2=CC(c3ccccc3Cl)n3nc(-c4ccc(Cl)cc4)nc3N2)cc1 (stereo not drawn) -0.125%
COc1ccccc1CNC(=O)CCS(=O)(=O)c1ccc2c(c1)CCN2C(C)=O -4.79%
Cc1nc2nc(NCc3ccc(Cl)cc3)[nH]n2c(=O)c1Cc1ccccc1 12.3%
O=c1cc(O)cc(/C=C/c2ccc(O)c(O)c2)o1 -8.65%
COC(=O)c1scc(-c2ccc(C)cc2)c1S(=O)(=O)N1CCN(c2ccc(C(C)=O)cc2)CC1 -11.9%
Cc1ccc(Cl)cc1N1CCN(C(=O)Cn2cnc3sc(C)c(S(=O)(=O)N4CCC(C)CC4)c3c2=O)CC1 -9.03%
CC1CCc2c(sc(NC(=O)C3c4ccccc4Oc4ccccc43)c2C#N)C1 (stereo not drawn) -6.49%
Cc1ccc(-n2c(=O)c3c(C)c(C)sc3n(CC(=O)NCc3ccccc3)c2=O)cc1C -2.76%
CCCn1c(CCC(=O)Nc2ccc(OCC)cc2)nc2cccnc21 -2.25%
CCOC(=O)c1c(C)oc2nc(C)nc(NCc3ccc(F)cc3)c12 6.41%
COc1ccc(C(=O)Nc2nnc(SCc3cc(=O)c4cc(C)cc(C)c4[nH]3)s2)cc1 -5.19%
CCOc1ccc(CCNC(=O)CCCn2c(=O)c3cccn3c3ccccc32)cc1 -14.5%
Cc1ccc(CNC(=O)CCCn2c(=O)c3ccccc3n(CC(=O)Nc3ccc(C)c(C)c3)c2=O)cc1 -3.15%
Cc1ccc(Cl)cc1NC(=O)C(C)n1nc(-c2ccccc2)ccc1=O (stereo not drawn) -0.748%
Cc1ccc(-n2ncc3c(NCCC4=CCCCC4)ncnc32)cc1 26.8%
COC(=O)NCC(c1cccnc1)N1CCN(c2ccc(F)cc2)CC1 (stereo not drawn) 5.55%
Cn1c(=O)c2c(nc(SCC(=O)Nc3ccccc3F)n2Cc2ccc(Cl)cc2)n(C)c1=O 3.9%
CCc1ccccc1NC(=O)CCNS(=O)(=O)c1ccc2c(c1)CCN2C(=O)C1CC1 29.6%
CCN(c1ccccc1)S(=O)(=O)c1ccc(NC(=O)c2nc(SC(C)C)ncc2Cl)cc1 -2.77%
Cc1c(O)cccc1C(=O)N[C@@H](CSc1ccccc1)[C@H](O)CN1C[C@H]2CCCC[C@H]2C[C@H]1C(=O)NC(C)(C)C -24.9%
CCOC(=O)c1cnc2ccc(OCC)cc2c1Nc1ccc(OCc2ccccc2Cl)cc1 -4.06%
Cc1cccc(CNC(=O)CN2C(=O)CSc3c2c(C)nn3-c2ccccc2)c1 22.4%
COc1cc(C(CC(=O)Nc2ncccc2C)N2Cc3ccccc3C2=O)cc(OC)c1OC (stereo not drawn) 1.16%
COc1ccc(-c2nc3cc(NC(=O)c4ccc(C)cc4)ccc3o2)cc1Cl 25.7%
CC(=O)c1cc(-c2ccc(F)cc2)n(CCC(=O)Nc2nc3ccc(C)cc3s2)c1C -29.6%
CCOc1ccc(Br)cc1C1NC(=O)c2c(sc3c2CCN(C)C3)N1 (stereo not drawn) -24.7%
Cc1ccc(C(=O)N2CCC(C)CC2)cc1NC(=O)c1nsc2ccccc12 -16.6%
O=C(OCc1cc(=O)n2nc(C3CC3)sc2n1)c1ccc(NC(=O)c2ccccc2F)cc1 -6.73%
COCCCn1c(=N)c(C(=O)NC2CCCCC2)cc2c(=O)n3cc(C)ccc3nc21 11.2%
CC1CCN(S(=O)(=O)c2ccc3nc(N4CCN(c5ccc(F)cc5)CC4)ccc3c2)CC1 -4.01%
CCc1ccccc1NC(=O)c1ccc(F)c(S(=O)(=O)N2CCN(c3cccc(Cl)c3)CC2)c1 -10.7%
Cc1ccc(S(=O)(=O)c2cc3cc(C(=O)Nc4ccc(C)cc4C)ccc3oc2=O)cc1 12.8%
CC1CCCCN1CCCNC(=O)Cn1ncc2c3ccccc3n(C)c2c1=O (stereo not drawn) -4.71%
CCOc1ccc(NC(=O)CSc2oc(-c3ccc(C)cc3)nc2S(=O)(=O)c2ccc(C)cc2)cc1 -6.07%
COc1ccc(-c2cc(C(F)(F)F)nc(NCc3ccc(F)cc3)n2)cc1 -5.41%
COc1cccc(C(=O)N(Cc2ccc(C)o2)C2CCS(=O)(=O)C2)c1 (stereo not drawn) -14.6%
O=C(COCc1cc(-c2cccs2)on1)Nc1cc(C(F)(F)F)ccc1Cl -22.4%
CC(C)OCCCNC(=O)CCCN1C(=O)CCn2nc(-c3cccn3C)cc21 -2.05%
Cc1ccc(O)c(-c2n[nH]c3c2C(c2ccc(F)cc2)N(Cc2ccco2)C3=O)c1 (stereo not drawn) 31.4%
O=C(Nc1ccc(Cl)cc1)c1cc(S(=O)(=O)NC2CCCCCC2)ccc1F -8.74%
CCc1ccc(S(=O)(=O)c2nnn3c2nc(NCc2ccccc2)c2cc(Cl)ccc23)cc1 -12.8%
CCN1C(=O)C(Cc2nc3ccccc3c(=O)n2C)c2cc(C)ccc21 (stereo not drawn) -13.5%
CCOc1ccc(C(=O)Nc2ccc3c(c2)OCCO3)cc1Br 16.1%
CCCNC(=O)C(Cc1ccccc1)NS(=O)(=O)c1ccc2c(c1)c(=O)n(C)c(=O)n2C (stereo not drawn) -8.14%
COc1ccccc1-c1nc2cc(NC(=O)c3ccccc3Cl)ccc2o1 1%
Cc1ccc(-c2csc3ncnc(Nc4ccc(C(=O)O)cc4)c23)cc1 3.88%
COc1ccc2c(c1)CCc1c(C(=O)Nc3ccc(OC)cc3OC)noc1-2 1.58%
COc1ccccc1NC(=O)c1sc2nc3n(c(=O)c2c1C)N=C(c1cccc(Br)c1)CS3 -12.4%
Cc1nc(S(=O)(=O)N2CCN(c3ccccc3F)CC2)cn1C 5.39%
COc1ccc(Cl)cc1NC(=O)CN1Cc2ccccc2C1=O -19.4%
COc1ccc(Cn2c(C(=O)O)c(CNC3CCCCC3)c3ccc(C)cc32)cc1 13.2%
COC(=O)c1ccc2c(c1)N(Cc1ccccc1)C(=O)c1ccccc1S2(=O)=O 7.74%
COc1ccc(OC)c(/C=C(\C#N)c2nc(-c3ccc(F)cc3)cs2)c1 -14.7%
O=C(O)c1ccc(NC(=O)c2ccc(Br)c(S(=O)(=O)N3CCCC3)c2)cc1 -12.8%
CCOc1ccc(NC(=O)Cc2c[nH]c3ccccc23)cc1 -0.226%
